Reference: the supplement of paper PMC10126150
Sequences with one replicate were seen in a single cluster, so their values are uncertain.

test system: ATP; test: switch fluorescence ratio, 500 uM ATP over buffer (Cy3 cluster intensity, sum of 5 cycles each) (fold (ratio)); higher = stronger signal-on switching upon ATP binding; sequences stand for … in TCGTCGGCAGCGTCAGATGTGTATAAGAGACAGTTTTTTTTTTTTTTTTTTTTTTTTT…TC; conditions: aptamer strand: ATP DNA aptamer (quencher-CACCTGGGGGAGTATTGCGGAGGAAGG + anchor), 100 nM annealed; ATP concentration: 500 uM; one replicate
How it was run: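 Values give the fluorescence ratio for each switch-domain sequence, averaged from per-cluster ratios of summed target-cycle to summed buffer-cycle Cy3 intensity. The Cy3-labelled switching-strand clusters sat on a modified Illumina MiSeq flow-cell, were annealed to 100 nM quencher-labelled ATP aptamer, and were imaged in selection buffer, then after 15 min with 500 uM ATP at 22 °C. Five cycles ran with NaOH stripping and re-annealing between them, and clusters outside 100-1000 RFU were excluded.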
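Also: ATP exposure 15 min at 22 °C before imaging.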

Row | Sequence | switch fluorescence ratio
1 | CGCGAATTGA | 0.984
2 | TAAAATGAAG | 0.998
3 | TTTTCTAT | 0.989
4 | CTGTTGTCAC | 0.996
5 | GTTCATTACG | 0.994
6 | ATAGCGCACT | 1.13
7 | TTACTCTATT | 1.02
8 | GTTATCATAG | 1.02
9 | CTAGGGTAAA | 0.972
10 | ATACCTAGTC | 0.987
11 | TGGGAGGAAG | 0.985
12 | ATGGGATGAA | 0.995
13 | TCCGCCCAAG | 2.58
14 | CGCTACTGAA | 1.01
15 | GCAGCATGGC | 1.38
16 | CTTGAGGAAG | 1.01
17 | ACCCGAGTCG | 1
18 | TCAATCCCAT | 1.05
19 | GTGGTGCGCA | 1.02
20 | TGAAGGTCTA | 1
21 | TGCAGCAGAA | 1.14
22 | AGGAAGTGAT | 0.991
23 | ATCTGTAGTA | 0.981
24 | ATGTGCATTA | 0.998
25 | CTTTTCTTCT | 1.04

Row | Sequence | switch fluorescence ratio
26 | GTAAGGGTGT | 1.02
27 | ACAGGTAGTT | 1.03
28 | CGGTCATAT | 1.02
29 | AATGCCTCGC | 0.99
30 | TAGGGTATAG | 1.02
31 | TCGTGTAGGA | 1.01
32 | TTCAGTAGTG | 0.993
33 | GCCGCTACGT | 1.08
34 | AATAGCGGGC | 1.06
35 | CCCATAGGAA | 0.985
36 | AATTCTATC | 1.01
37 | TTTTGCGTCC | 1.09
38 | TAGTCAGCGA | 1.05
39 | TTCTCCCTAA | 1.18
40 | AGAGTGTACG | 0.978
41 | TTCGCTTACT | 1.27
42 | GCGTTTCAAG | 0.972
43 | AATTTACCCT | 1.29
44 | GGCCAAATGT | 1.03
45 | TAAGTCTGCT | 0.988
46 | CCTCATTGA | 1.07
47 | CGTCTTTTGT | 0.993
48 | ATAATCAGCT | 1.06
49 | GCTTTGAGCA | 0.947
50 | CGTTAGGCAA | 1.72

Row | Sequence | switch fluorescence ratio
51 | CTTATTATAC | 1.71
52 | CCAATACGAA | 2.18
53 | GTTATCTGGA | 0.906
54 | CGTCAATCTG | 1.1
55 | GTCATTACGG | 0.997
56 | AGCAGCCTGT | 1.05
57 | TCTGAACGTT | 1.05
58 | TGAACCAGAC | 1.62
59 | TAGGATTATT | 1.13
60 | GGCTACTTCG | 0.999
61 | TCGATGGTA | 0.962
62 | CTCAGGTATA | 1.03
63 | GATCTTTTGG | 0.988
64 | GAGTGCATAT | 1.04
65 | CTCCACCAAG | 2.16
66 | ATATTTAGTA | 0.929
67 | CGAATTTGCG | 0.963
68 | ACTCTCGGCA | 1.29
69 | CTCAACATTT | 0.975
70 | CAAATAATTG | 1.02
71 | AAACAATCGT | 0.98
72 | TCAGTCATAT | 0.973
73 | CTTAGGCTAG | 1
74 | GAGCCGGAAA | 0.999
75 | ACGCGGTGGG | 1.03

Row | Sequence | switch fluorescence ratio
76 | GACAGCATCG | 1.11
77 | GTTTTTGC | 0.909
78 | ACACTAATGT | 1.08
79 | CACCGTCTCG | 1.06
80 | TCCCTTGCTT | 1.3
81 | CCTGGCTCGG | 1.02
82 | CCGACCATCA | 1.99
83 | TAAATCGCAC | 1.17
84 | GGTCGCAGAG | 1
85 | TTCGTCCGAA | 1.19
86 | GACTTTTTAC | 1.08
87 | TATTGTTTAG | 1.01
88 | ACTTCATATC | 1.02
89 | GATTGTAGAA | 1.03
90 | CTAGTTTCAG | 0.977
91 | ATTTAAAGTG | 0.958
92 | ATTGGCGCGT | 1
93 | AATGCCAGCC | 1.07
94 | GGGAAAGGCC | 0.99
95 | AGCATGGTTC | 1.04
96 | TTTGTGAGC | 1.04
97 | CAGAGCGTTG | 0.995
98 | TTCCAGCCGG | 1
99 | ATACTTGAAG | 1.03
100 | ATTAACAATC | 1.1
